Consider 153 variants from a collection of fitness landscapes (doi:10.1126/science.1257360).

B1: PhoQ; a variant is named by its letters at X, in order, P23837 (parent)
chain: MKKLLRLFFPLSLRVRFLLATAAVVLVLSLAYGMVALIGYSVSFDKTTFRLLRGESNLFYTLAKWENNKLHVELPENIDKQSPTMTLIYDENGQLLWAQRDVPWLMKMIQPDWLKSNGFHEIEADVNDTSLLLSGDHSIQQQLQEVREDDDDAEMTHSVAVNVYPATSRMPKLTIVVVDTIPVELKSSYMVWSWFIYVLSANLLLVIPLLWVAAWWSLRPIEALAKEVRELEEHNRELLNPATTRELTSLVRNLNRLLKSERERYDKYRTTLTDLTHSLKTPLXXLQXXLRSLRSEKMSVSDAEPVMLEQISRISQQIGYYLHRASMRGGTLLSRELHPVAPLLDNLTSALNKVYQRKGVNISLDISPEISFVGEQNDFVEVMGNVLDNACKYCLEFVEISARQTDEHLYIVVEDDGPGIPLSKREVIFDRGQRVDTLRPGQGVGLAVAREITEQYEGKIVAGESMLGGARMEVIFGRQHSAPKDE

This is one part of the list.

The variants in this assay derive from B1. The assay can be described thus: enrichment ratio after two sorts for PhoP signalling (ratio (wild type AVST 3.29)); higher = more functional. The settings on record: with PhoP (E. coli).
Consider SVAK, for which the enrichment ratio was 4.26. The same measure for QTVS: not above 0.25; for FPKK: not above 0.25. NDDA: the enrichment ratio is not above 0.25. In the case of HKYK, the enrichment ratio is not above 0.25. Consider CNIL, for which the enrichment ratio was not above 0.25.

MFIK: the enrichment ratio is not above 0.25. On to PFAD, for which the enrichment ratio was not above 0.25. For KIRH, the enrichment ratio is not above 0.25. As to QSNV, the enrichment ratio was not above 0.25.

Consider DEFQ, for which the enrichment ratio is not above 0.25. On to HYTR, for which the enrichment ratio was not above 0.25. In the case of ADQT, the enrichment ratio is not above 0.25. The same measure for VKCG: not above 0.25; for SFSF: not above 0.25.

On to EGCY, for which the enrichment ratio is not above 0.25. The same measure for HAWF: not above 0.25; for HSRW: not above 0.25; for YPPR: not above 0.25.

Consider LQRQ, for which the enrichment ratio is not above 0.25.

With KFYN, the enrichment ratio was not above 0.25. On to RQVT, for which the enrichment ratio is not above 0.25. Turning to TNCV, the enrichment ratio was determined as 10. With GLEN, the enrichment ratio was not above 0.25.

For the variant RTRN, the enrichment ratio was not above 0.25. On to VHKH, for which the enrichment ratio is not above 0.25. The same measure for DEES: not above 0.25; for DTTL: not above 0.25. Turning to EPFI, the enrichment ratio was not above 0.25. KYCT: the enrichment ratio is not above 0.25. In the case of GYDW, the enrichment ratio was not above 0.25. The value for KKLH was not above 0.25. Consider MALP, for which the enrichment ratio was not above 0.25.

In the case of MPPR, the enrichment ratio was not above 0.25. In the case of YVPT, the enrichment ratio was not above 0.25. The value for FGFK was not above 0.25; that for SCPC was 2.78. Consider MNEI, for which the enrichment ratio is not above 0.25. The same measure for LCRM: not above 0.25; for MISH: not above 0.25. Turning to FSQD, the enrichment ratio is not above 0.25. Take VPIA: the enrichment ratio is not above 0.25. With TQYT, the enrichment ratio is 0.906. The same measure for WHIP: not above 0.25. On to SSGH, for which the enrichment ratio amounted to 7.6. Regarding LGNI, the enrichment ratio was not above 0.25. The same measure for DKTA: not above 0.25; for NWMM: not above 0.25. The value for VGGH was not above 0.25; that for SKPQ was not above 0.25. The value for YHFY was not above 0.25; that for VKEC was not above 0.25. KHPE: the enrichment ratio is not above 0.25.

KEQL: the enrichment ratio was not above 0.25. Take RDWV: the enrichment ratio is not above 0.25. Turning to QPMT, the enrichment ratio is not above 0.25.

Take FSWW: the enrichment ratio was not above 0.25. On to APIQ, for which the enrichment ratio was not above 0.25. The same measure for QMDG: not above 0.25.

Consider RRWK, for which the enrichment ratio was not above 0.25. As to QRGV, the enrichment ratio is not above 0.25. RNHY: the enrichment ratio was not above 0.25. The value for NVYR was not above 0.25; that for SWRN was not above 0.25; that for FGSH was not above 0.25. As to ESYS, the enrichment ratio was not above 0.25. Regarding TPFE, the enrichment ratio was not above 0.25. The same measure for PAVF: not above 0.25.

Turning to KHNK, the enrichment ratio was not above 0.25. For the variant FAHM, the enrichment ratio is not above 0.25.

As to ETLP, the enrichment ratio is not above 0.25. The same measure for MNAE: 8.04. Regarding RHTM, the enrichment ratio was not above 0.25. Take NWAW: the enrichment ratio was not above 0.25. Consider VYSH, for which the enrichment ratio was not above 0.25.

Turning to YGRD, the enrichment ratio is not above 0.25. As to KHPG, the enrichment ratio was not above 0.25. With PYIR, the enrichment ratio was not above 0.25. For GSLN, the enrichment ratio came to 5.75. The same measure for MVKH: not above 0.25; for MHCY: not above 0.25. With QGIR, the enrichment ratio was not above 0.25. The same measure for TPEA: not above 0.25; for GPPG: not above 0.25; for LDQI: not above 0.25. Regarding NCRN, the enrichment ratio was not above 0.25. TNAY: the enrichment ratio came to 2.94. Regarding RGQF, the enrichment ratio was not above 0.25. Consider DHMI, for which the enrichment ratio is not above 0.25. DGDY: the enrichment ratio was not above 0.25. As for WEDT, the enrichment ratio was not above 0.25. On to YYTP, for which the enrichment ratio was not above 0.25. As for MSIK, the enrichment ratio is not above 0.25. On to NHAW, for which the enrichment ratio was not above 0.25. IYFL: the enrichment ratio is not above 0.25.

In the case of IPTQ, the enrichment ratio was not above 0.25. ARRE: the enrichment ratio is not above 0.25. Consider SVLC, for which the enrichment ratio worked out at 7.28. As for GHVC, the enrichment ratio was not above 0.25.

With LDRP, the enrichment ratio is not above 0.25. Consider IMCH, for which the enrichment ratio is not above 0.25. The same measure for PKRW: not above 0.25; for DAKC: not above 0.25; for AHNM: 5.49.

For the variant IKFH, the enrichment ratio was not above 0.25. As to MADT, the enrichment ratio was not above 0.25. For the variant HSFL, the enrichment ratio was not above 0.25. As for AKSI, the enrichment ratio worked out at 22.7. For DKKY, the enrichment ratio is not above 0.25. DEFK: the enrichment ratio was not above 0.25.

VEKP: the enrichment ratio is not above 0.25.

Take GTDT: the enrichment ratio is not above 0.25.

Regarding GHKP, the enrichment ratio was not above 0.25. Consider EKRV, for which the enrichment ratio was not above 0.25. The value for DYAI was not above 0.25. AHLQ: the enrichment ratio worked out at 6.84.

In the case of GYPH, the enrichment ratio was not above 0.25. As for YPYH, the enrichment ratio is not above 0.25. With LTFC, the enrichment ratio was not above 0.25.

Take IQIQ: the enrichment ratio was not above 0.25. EKIL: the enrichment ratio was not above 0.25. The value for VDDY was not above 0.25. Consider IWQA, for which the enrichment ratio was not above 0.25. Regarding IEEC, the enrichment ratio is not above 0.25. On to HYQN, for which the enrichment ratio was not above 0.25. The same measure for VCRK: not above 0.25; for MIRK: 3.82; for NHKL: not above 0.25. Consider PGGE, for which the enrichment ratio is not above 0.25. The value for MGMT was not above 0.25; that for WNVC was not above 0.25; that for VCVC was not above 0.25. In the case of NSAT, the enrichment ratio is not above 0.25. The same measure for PSFQ: not above 0.25. As for YKQF, the enrichment ratio was not above 0.25. The value for WMGG was not above 0.25; that for RHCG was not above 0.25; that for DSKC was not above 0.25. In the case of NIFH, the enrichment ratio is not above 0.25. For AVLA, the enrichment ratio was determined as 8.58. As to VDSL, the enrichment ratio is not above 0.25. Turning to NHLP, the enrichment ratio is not above 0.25.

As to TNVW, the enrichment ratio is not above 0.25. On to NRPC, for which the enrichment ratio is not above 0.25. The same measure for YDRS: not above 0.25; for WGSC: not above 0.25.

In the case of VRGL, the enrichment ratio is not above 0.25. WETR: the enrichment ratio was not above 0.25.

TPLD: the enrichment ratio is not above 0.25. The value for HGCH was not above 0.25; that for VCNG was not above 0.25; that for MGSL was 9.47. Consider VNLH, for which the enrichment ratio was not above 0.25.
